Measurements from PubChem BioAssay AID463173 (ICCB-Longwood Screening Facility, Harvard Medical School, 2010).
The campaign covered roughly 52,000 compounds. About 4,300 (8.3%) were called active. Rule as the data show it: active = survival mostly below about 52% (no sharp cut-off); inactive = mostly above about 56%. The list shows a part of the results.

Each compound was assayed on DeltatarO mutant (assay: S. aureus survival, RN4220 and DeltatarO strains – OD600, teichoic acid synthesis inhibitors, primary screen (AID 463173)). Details: S. aureus RN4220 wild type/DeltatarO growth, OD600, 18 h, hits give low values, screened at 18.75 µg/mL (by protocol).

Structure (SMILES)	survival
CCCCCCc1nnc(NC(=O)CC)s1	inactive: 76%
CCN1C(=O)/C(=c2\s/c(=C3\Sc4ccc(OC)cc4N3C)c(=O)n2Cc2ccccc2)N(C)C1=S	inactive: 74%
O=C(CSc1nc(-c2ccco2)nc2cc(=O)[nH]n12)Nc1ccccc1F	inactive: 75%
COc1ccc2cc3cc(C(=O)Nc4ccccc4C)oc3nc2c1	inactive: 116%
COc1ccc(NC(=O)CSc2nc(C)cc(C)c2C(=O)Nc2cccc(C)c2)cc1	inactive: 92%
COc1cccc(C(=O)Nc2ccccc2-c2nnc(-c3ccc(C(C)(C)C)cc3)o2)c1	inactive: 77%
Cc1cccc(-n2ncc(C(=O)NCc3ccco3)c2C2CCN(C(=O)OC(C)(C)C)CC2)c1	inactive: 81%
Cc1ccc(S(=O)(=O)CCc2nc3ccccc3n2CCC#N)cc1	inactive: 105%
Cc1nc2cccnc2n1C1CCN(S(=O)(=O)c2ccc(C(C)C)cc2)CC1	inactive: 117%
CCc1nn(CC(=O)NCCN(CC)CC)c(=O)c2cc3occc3n12	inactive: 119%
CCn1c(=O)c2cc(C(=O)N(C)c3cc(Cl)c(OC)cc3OC)sc2c2ccccc21	inactive: 80%
Cc1ccc(N2CCN(C(=O)c3c(C)oc4nc(C)nc(N5CCCC5)c34)CC2)c(C)c1	inactive: 102%
COc1ccc(NC(=O)c2sc3nc4c(cc3c2N)CCCCCC4)cc1Cl	inactive: 53%
CCOC(=O)c1cccc(NC(=O)N2CC(CC)Oc3ccccc32)c1 (stereo unspecified)	inactive: 54%
COC(=O)C1(C)NC(c2ccccc2C)C2C(=O)N(C)C(=O)C21 (stereo unspecified)	active: 54%
CC(=O)Nc1c(C(=O)Nc2ccccc2F)oc2ccccc12	inactive: 119%
CCc1ccc(Nc2nc3c(S(=O)(=O)c4cccc(Cl)c4)nnn3c3ccsc23)cc1	inactive: 43%
CC(C)Cc1cc(C(=O)O)nc(=O)[nH]1	inactive: 105%
O=C(Nc1ccccn1)c1ccccc1O	inactive: 95%
COC(=O)c1c(NC(=O)c2c(OC)cccc2OC)sc2c1CCCC2	active: 13%
CC1CCCCN1S(=O)(=O)c1ccc2[nH]c(=O)cc(C(=O)NCCc3ccc(Cl)cc3)c2c1 (stereo unspecified)	inactive: 67%
COc1cc(SC)ccc1C(=O)N1CCCC(C)C1 (stereo unspecified)	inactive: 76%
COc1cccc(NC(=O)CC2Oc3ccccc3NC2=O)c1 (stereo unspecified)	inactive: 83%
C=Cc1ccc(Cn2c(C(=O)OC)cc3sc(C)cc32)cc1	active: 27%
CCc1ccccc1N1C(=O)CC(N2CCc3ccccc32)C1=O (stereo unspecified)	inactive: 102%
CC(C)OCCCNC(=O)CN1C(=O)CSc2ccc(S(=O)(=O)N3CCOCC3)cc21	inactive: 99%
